Source: ChEMBL document CHEMBL4888484, “Replenishing the malaria drug discovery pipeline: Screening and hit evaluation of the MMV Hit Generation Library 1 (HGL1) against asexual blood stage Plasmodium falciparum ,using a nano luciferase reporter read-out” (2022)
Out of some 150,000 compounds screened, about 540 (0.36%) showed an effect of 50% or more. The list shows a part of the results.

What follows are compounds tested on Plasmodium falciparum (assay: Primary screen in NF54 nanoGlo assay, in single point, at 2uM, 72h; a lower Z score goes with more inhibition). Settings: timepoint 72 hour.
Format: functional, Erythrocyte

First: c1ccc(-c2nc(-c3ccc(-n4ccnc4)nc3)no2)cc1
Second: O=C(c1cccc(-c2noc(-c3ccco3)n2)c1)N1CCCC1
The “% Inhibition” value of the first is higher: -3% for the first, -18% for the second.

Compared with CC(=O)N[C@@H]1CC[C@H]2CCOc3ccccc3C(=O)N3CCN(CCC(C)(C)C)C[C@H]3C(=O)NC[C@H]1O2, O=C1CC(c2ccccc2)N(C(=O)C2Cc3ccccc3O2)CCN1 (stereo not drawn) is lower in “% Inhibition” value: 11% for the first, -15% for the second.

Going from O=C(NCc1cccnc1-c1cccnc1)c1ccc2c(c1)OCO2 to Cc1cccc2nc(-c3ccco3)c(Nc3ccc4c(c3)OCO4)n12, the “% Inhibition” value falls from 3% to -9%.

First: O=C(NCCC1=CCCCC1)c1cc2n(n1)CCCN(Cc1ccc(Cl)cc1)C2=O
Second: CC[C@H]1CCCCCN1C(=O)Cc1ccc(-n2cnnc2)cc1
The “% Inhibition” value of the first is lower: -6% for the first, 2% for the second.

Going from C[C@@H]1CN(CCC2CCCCO2)C[C@H](C)N1CCC1CCCCO1 (stereo partly drawn) to O=S(=O)(CC1CCCC1(F)F)NCCN1CC2CCC(C1)O2 (stereo not drawn), the “% Inhibition” value rises from -17% to 3%.

Compared with OC1c2ccccc2CC1NCc1ccc(Cl)cc1-n1cncn1 (stereo not drawn), CC(CS(=O)(=O)c1ccccc1)NC(C)c1cccc(-n2cncn2)c1 (stereo not drawn) is higher in “% Inhibition” value: -8% for the first, -1% for the second.

First: Cc1nc2ncnn2c(N2CCCC2)c1C
Second: Cc1ncnc(-c2ccc([C@H](C)N3CCCCC3)cc2)c1C
The “% Inhibition” value of the first is lower: -12% for the first, 3% for the second.

Going from O=C(O)c1cc(N2CCC[C@H](c3nccn3Cc3ccccc3)C2)ccn1 to O=C(Cn1cccn1)N1CCCC[C@H]1c1nc(-c2ccccc2)c[nH]1, the “% Inhibition” value falls from 2% to -4%.

Compared with CCc1cccc(OC[C@@H](O)Cn2c(NC3CCCCC3)nc3c2c(=O)n(C)c(=O)n3C)c1, OC(COc1cccc2ccccc12)CN1CCCN2CCCC2C1 (stereo not drawn) is lower in “% Inhibition” value: 3% for the first, -9% for the second.

Compared with O=S(=O)(CC[C@H]1CCOC1)NCc1nnc2n1CCCCC2, CC(C)c1csc(CN2CCC[C@H](CCC(=O)N3CCOCC3)C2)n1 is higher in “% Inhibition” value: -16% for the first, -12% for the second.

First: O=C(c1nc2ccccc2s1)N1CCC(S(=O)(=O)c2ccc(F)cc2)CC1
Second: C[C@@]1(O)CCN(Cc2ccccc2Cl)[C@@H](c2ccccc2)[C@@H]1NC(=O)c1ccc(F)cc1
The “% Inhibition” value of the first is lower: -17% for the first, -15% for the second.

First: O=C(NCc1oc2ccc(Cl)cc2c1-c1ccccc1)[C@H]1CCOC1
Second: O=C(NCCCN1CCCC1=O)Nc1nc(-c2ccccc2)cs1
The “% Inhibition” value of the first is higher: 11% for the first, -5% for the second.

Going from CCCN1CCCC[C@H]1C(=O)Nc1ccn(CCCn2ccnc2)n1 to Cc1ccn(CC(=O)N2CCCC[C@@]2(C)c2noc(-c3ccc(F)cc3)n2)n1, the “% Inhibition” value rises from -2% to 32%.

Going from Cc1nccn1CCn1ccnc1-c1ccccn1 to Cc1cnc(CNC(=O)c2cc3nccc(C(F)(F)F)n3n2)c(C)c1, the “% Inhibition” value rises from -4% to 5%.

First: COCCn1cncc1CN(Cc1ccc(C)s1)C1CCCC1
Second: Cc1nc(C)c(CN[C@@H](CCO)C2CCCCC2)s1
The “% Inhibition” value of the first is higher: -2% for the first, -9% for the second.

Compared with COc1cc2c(cc1OC)CN(C(=O)c1cc3c(nc1OC)CCC3)CC2, COc1ccc(-c2noc([C@@H]3CCCN3C(=O)C3CCCC3)n2)cc1 is higher in “% Inhibition” value: -18% for the first, -7% for the second.

Going from Cc1ccc2c(=O)c(C(=O)Nc3ccc(Br)cc3)c[nH]c2n1 to Cc1cc(C)n2cc(COC(=O)c3ccc(O)cc3)nc2n1, the “% Inhibition” value rises from -11% to -4%.

Compared with Cc1[nH][nH]c(=O)c1CC(=O)NC(c1ccc(F)cc1F)[C@H]1C[C@H](O)C1 (stereo partly drawn), CC1(c2ccc(Cl)s2)NC(=O)N(CC2CC3CCC2O3)C1=O (stereo not drawn) is lower in “% Inhibition” value: 12% for the first, -14% for the second.

First: Cn1ccc2ccc(CN3C[C@H]4CN(C5CCCC5)C[C@@]4(C(=O)O)C3)cc21
Second: CCOc1cc(C(=O)N(C)C)ccc1NC1CC(C)N(C2CC2)C1 (stereo not drawn)
The “% Inhibition” value of the first is higher: -4% for the first, -11% for the second.

First: Cc1cc(C)nc(Cn2cnc3cn(C)nc3c2=O)n1
Second: COc1ccc([C@@H](NCc2noc(C)n2)C2CCOCC2)cc1
The “% Inhibition” value of the first is lower: 0% for the first, 2% for the second.

Going from O=C(Nc1ccccc1Br)C1CCN([C@H](C(=O)O)C2CC2)CC1 to O=C(c1cnn2cccc(Br)c12)N1CC[C@@](F)(CO)C1, the “% Inhibition” value rises from -8% to 7%.

Going from CC(C)(C)CS(=O)(=O)NC(=O)CCc1cncc(F)c1 to CCc1ccc(S(=O)(=O)N2CCCN(C(C)C)CC2)s1, the “% Inhibition” value falls from -4% to -12%.

Going from CC(C)(C)n1ncnc1[C@@H]1[C@H]2[C@@H]3CC[C@@H](C3)[C@@H]12 to C[C@@H](C1CCC1)N(C)C(=O)c1cn(C2CCOCC2)nn1, the “% Inhibition” value falls from -7% to -10%.

CC(C)c1ocnc1C(=O)N1CC2CC=CCC2C1 (stereo not drawn) and CN(C)c1ccc(NC(=O)N2CCOCC2)cn1 are the same in “% Inhibition” value: 3% for the first, 3% for the second.

Compared with O=C(CN1CCC(OC[C@H]2CCCO2)CC1)Nc1nccs1, C1CCC(c2nc3c(c(NCc4noc([C@@H]5CCCO5)n4)n2)CNC3)C1 is higher in “% Inhibition” value: -1% for the first, 8% for the second.

First: O=C1CCC(=O)N1C1CC2CCC(C1)N2S(=O)(=O)C1CC1 (stereo not drawn)
Second: CCC1(CC)NC(=O)N(CC(=O)N2CCCC2)C1=O
The “% Inhibition” value of the first is lower: -8% for the first, 4% for the second.

Compared with CN1CCC(CNc2ncccc2F)(N2CCCCC2)CC1, COC(=O)C1(C)CCN(CC(O)C(F)(F)F)C1 (stereo not drawn) is lower in “% Inhibition” value: -2% for the first, -5% for the second.

Compared with c1ccc(-c2nc(-c3ccc(-n4ccnc4)nc3)no2)cc1, O=C(c1cccc(-c2noc(-c3ccco3)n2)c1)N1CCCC1 is higher in Z score: 0.3 for the first, 2.45 for the second.

Going from CC(=O)N[C@@H]1CC[C@H]2CCOc3ccccc3C(=O)N3CCN(CCC(C)(C)C)C[C@H]3C(=O)NC[C@H]1O2 to O=C1CC(c2ccccc2)N(C(=O)C2Cc3ccccc3O2)CCN1 (stereo not drawn), the Z score rises from -1.26 to 1.72.

Compared with O=C(NCc1cccnc1-c1cccnc1)c1ccc2c(c1)OCO2, Cc1cccc2nc(-c3ccco3)c(Nc3ccc4c(c3)OCO4)n12 is higher in Z score: -0.46 for the first, 1.02 for the second.

Going from O=C(NCCC1=CCCCC1)c1cc2n(n1)CCCN(Cc1ccc(Cl)cc1)C2=O to CC[C@H]1CCCCCN1C(=O)Cc1ccc(-n2cnnc2)cc1, the Z score falls from 1.15 to -0.52.

Compared with C[C@@H]1CN(CCC2CCCCO2)C[C@H](C)N1CCC1CCCCO1 (stereo partly drawn), O=S(=O)(CC1CCCC1(F)F)NCCN1CC2CCC(C1)O2 (stereo not drawn) is lower in Z score: 1.78 for the first, -0.5 for the second.

Going from OC1c2ccccc2CC1NCc1ccc(Cl)cc1-n1cncn1 (stereo not drawn) to CC(CS(=O)(=O)c1ccccc1)NC(C)c1cccc(-n2cncn2)c1 (stereo not drawn), the Z score falls from 1.3 to 0.15.

Compared with Cc1nc2ncnn2c(N2CCCC2)c1C, Cc1ncnc(-c2ccc([C@H](C)N3CCCCC3)cc2)c1C is lower in Z score: 1.99 for the first, -0.53 for the second.

Going from O=C(O)c1cc(N2CCC[C@H](c3nccn3Cc3ccccc3)C2)ccn1 to O=C(Cn1cccn1)N1CCCC[C@H]1c1nc(-c2ccccc2)c[nH]1, the Z score rises from -0.27 to 0.72.

First: CCc1cccc(OC[C@@H](O)Cn2c(NC3CCCCC3)nc3c2c(=O)n(C)c(=O)n3C)c1
Second: OC(COc1cccc2ccccc12)CN1CCCN2CCCC2C1 (stereo not drawn)
The Z score of the first is lower: -0.42 for the first, 0.96 for the second.

First: O=S(=O)(CC[C@H]1CCOC1)NCc1nnc2n1CCCCC2
Second: CC(C)c1csc(CN2CCC[C@H](CCC(=O)N3CCOCC3)C2)n1
The Z score of the first is higher: 2.61 for the first, 2.32 for the second.

Compared with O=C(c1nc2ccccc2s1)N1CCC(S(=O)(=O)c2ccc(F)cc2)CC1, C[C@@]1(O)CCN(Cc2ccccc2Cl)[C@@H](c2ccccc2)[C@@H]1NC(=O)c1ccc(F)cc1 is higher in Z score: 2.24 for the first, 2.27 for the second.

First: O=C(NCc1oc2ccc(Cl)cc2c1-c1ccccc1)[C@H]1CCOC1
Second: O=C(NCCCN1CCCC1=O)Nc1nc(-c2ccccc2)cs1
The Z score of the first is lower: -1.22 for the first, 0.58 for the second.

Going from CCCN1CCCC[C@H]1C(=O)Nc1ccn(CCCn2ccnc2)n1 to Cc1ccn(CC(=O)N2CCCC[C@@]2(C)c2noc(-c3ccc(F)cc3)n2)n1, the Z score falls from 0.31 to -3.66.

First: Cc1nccn1CCn1ccnc1-c1ccccn1
Second: Cc1cnc(CNC(=O)c2cc3nccc(C(F)(F)F)n3n2)c(C)c1
The Z score of the first is higher: 0.49 for the first, -0.74 for the second.

Going from COCCn1cncc1CN(Cc1ccc(C)s1)C1CCCC1 to Cc1nc(C)c(CN[C@@H](CCO)C2CCCCC2)s1, the Z score rises from 0.19 to 1.22.

First: COc1cc2c(cc1OC)CN(C(=O)c1cc3c(nc1OC)CCC3)CC2
Second: COc1ccc(-c2noc([C@@H]3CCCN3C(=O)C3CCCC3)n2)cc1
The Z score of the first is higher: 3.35 for the first, 1.09 for the second.

First: Cc1ccc2c(=O)c(C(=O)Nc3ccc(Br)cc3)c[nH]c2n1
Second: Cc1cc(C)n2cc(COC(=O)c3ccc(O)cc3)nc2n1
The Z score of the first is higher: 1.51 for the first, 0.65 for the second.

Compared with Cc1[nH][nH]c(=O)c1CC(=O)NC(c1ccc(F)cc1F)[C@H]1C[C@H](O)C1 (stereo partly drawn), CC1(c2ccc(Cl)s2)NC(=O)N(CC2CC3CCC2O3)C1=O (stereo not drawn) is higher in Z score: -1.61 for the first, 2.11 for the second.

Going from Cn1ccc2ccc(CN3C[C@H]4CN(C5CCCC5)C[C@@]4(C(=O)O)C3)cc21 to CCOc1cc(C(=O)N(C)C)ccc1NC1CC(C)N(C2CC2)C1 (stereo not drawn), the Z score rises from 0.6 to 1.2.

Going from Cc1cc(C)nc(Cn2cnc3cn(C)nc3c2=O)n1 to COc1ccc([C@@H](NCc2noc(C)n2)C2CCOCC2)cc1, the Z score falls from -0.03 to -0.32.

First: O=C(Nc1ccccc1Br)C1CCN([C@H](C(=O)O)C2CC2)CC1
Second: O=C(c1cnn2cccc(Br)c12)N1CC[C@@](F)(CO)C1
The Z score of the first is higher: 1.01 for the first, -1.25 for the second.

First: CC(C)(C)CS(=O)(=O)NC(=O)CCc1cncc(F)c1
Second: CCc1ccc(S(=O)(=O)N2CCCN(C(C)C)CC2)s1
The Z score of the first is lower: 0.43 for the first, 1.2 for the second.

Going from CC(C)(C)n1ncnc1[C@@H]1[C@H]2[C@@H]3CC[C@@H](C3)[C@@H]12 to C[C@@H](C1CCC1)N(C)C(=O)c1cn(C2CCOCC2)nn1, the Z score rises from 1.02 to 1.37.

Compared with CC(C)c1ocnc1C(=O)N1CC2CC=CCC2C1 (stereo not drawn), CN(C)c1ccc(NC(=O)N2CCOCC2)cn1 is lower in Z score: -0.36 for the first, -0.44 for the second.

Compared with O=C(CN1CCC(OC[C@H]2CCCO2)CC1)Nc1nccs1, C1CCC(c2nc3c(c(NCc4noc([C@@H]5CCCO5)n4)n2)CNC3)C1 is lower in Z score: 0.21 for the first, -1.11 for the second.

Going from O=C1CCC(=O)N1C1CC2CCC(C1)N2S(=O)(=O)C1CC1 (stereo not drawn) to CCC1(CC)NC(=O)N(CC(=O)N2CCCC2)C1=O, the Z score falls from 0.93 to -0.77.

Compared with CN1CCC(CNc2ncccc2F)(N2CCCCC2)CC1, COC(=O)C1(C)CCN(CC(O)C(F)(F)F)C1 (stereo not drawn) is higher in Z score: 0.24 for the first, 0.67 for the second.
